From PubChem BioAssay AID2147 (National Center for Advancing Translational Sciences (NCATS), 2009)
Hit rate of the full screen: of about 230,000 compounds, about 3,600 (1.6%) were called active. Inconclusive results, whose numbers are uncertain, are shown with a selection of clear calls. The call rests on the fitted dose curve; in most records, active means well fitted inhibition curve with a large enough effect (not every such curve was filed as active); inconclusive means small, poorly fitted or top-dose-only effect, or another doubt; inactive means no such curve, though single readings can be large or run the other way. A potency beside an inconclusive call is a rough fit, not a confirmed value.

Target: Lysine-specific demethylase 4E (Homo sapiens) (UniProt B2RXH2)
Assay: qHTS Assay for Inhibitors of Human Jumonji Domain Containing 2E (JMJD2E)
Settings: JMJD2E catalytic domain, FDH-coupled NADH fluorescence (FDH is formaldehyde dehydrogenase); series mostly up to 57.1 µM; activity change, negative = inhibition: at the top concentration
Further: nearly all actives have a fitted effect of over 50% in size.
Potency means the concentration at half of the fitted maximal effect; tags describe the fitted curve by direction and shape.
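Wherever activity change, negative = inhibition is given: 0% = wells with enzyme and -100% = buffer wells without enzyme.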

Chain of UniProt B2RXH2 (B2RXH2 whole entry, looked up, the tested form may be a part): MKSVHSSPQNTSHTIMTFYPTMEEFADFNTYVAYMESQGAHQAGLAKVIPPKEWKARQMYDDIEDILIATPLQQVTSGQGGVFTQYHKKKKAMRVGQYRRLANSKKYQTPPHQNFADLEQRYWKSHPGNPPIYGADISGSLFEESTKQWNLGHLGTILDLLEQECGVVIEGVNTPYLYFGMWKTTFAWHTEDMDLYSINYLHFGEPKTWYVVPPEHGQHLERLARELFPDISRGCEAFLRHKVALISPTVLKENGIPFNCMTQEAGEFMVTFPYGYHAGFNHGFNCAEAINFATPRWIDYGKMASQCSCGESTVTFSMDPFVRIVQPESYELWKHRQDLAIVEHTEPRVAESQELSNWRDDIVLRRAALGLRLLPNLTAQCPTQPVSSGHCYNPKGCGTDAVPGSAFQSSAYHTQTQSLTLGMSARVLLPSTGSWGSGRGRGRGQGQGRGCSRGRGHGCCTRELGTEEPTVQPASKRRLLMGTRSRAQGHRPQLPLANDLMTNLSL

SMILES | Potency | activity change, negative = inhibition
Cc1ccc2c(c1)nnn2C1CCN(CC(=O)N2c3ccccc3CC2C)CC1 (stereo unspecified) | inconclusive: 31.6 µM [inhibitor, single point] | –
Cc1c(-c2nc(N)nc(Nc3ccccc3F)n2)oc2ccccc12 | inconclusive: 7.08 µM [inhibitor, single point] | –
CCOC(=O)C1=C(C)N(CC(C)C)C(=O)/C1=C\c1ccc(OCC(=O)Nc2ccccc2)cc1 | – | inactive: -2.39%
Cc1nc(Nc2ccc(S(=O)(=O)N3CCCCC3C)cc2)c2nnn(Cc3ccccc3)c2n1 (stereo unspecified) | inconclusive: 28.2 µM [inhibitor, partial curve] | –
CC(C)NC(=O)CSc1nnc(-c2ccc(S(=O)(=O)N3CCCC3)cc2)n1CC1CCCO1 (stereo unspecified) | inconclusive: 39.8 µM [inhibitor, single point] | –
C[C@]12CCC(=O)C[C@@H]1CC[C@@H]1[C@@H]2CC[C@]2(C)C=CC[C@@H]12 | inconclusive: 0.0056 µM [inhibitor, full curve, poor fit] | –
N/C(=N\OC(=O)COc1ccccc1Cl)c1ccccn1 | inconclusive: 35.5 µM [inhibitor, single point] | –
CC(C)CNC(=O)c1cccc(NC(=O)c2ccc(NC(=O)c3ccco3)cc2)c1 | inconclusive: 39.8 µM [inhibitor, single point] | –
CCOc1ccc(C2C(C(=O)C3CC3)N3C=C(C#N)C=CC3C2(C#N)C#N)cc1 (stereo unspecified) | inconclusive: 31.6 µM [inhibitor, single point] | –
CC(NC(=O)/C(=C/c1ccc2c(c1)OCO2)NC(=O)c1cccc([N+](=O)[O-])c1)C(=O)O (stereo unspecified) | inconclusive: 39.8 µM [inhibitor, single point] | –
Cc1ccc2nc(-c3ccc(N)cc3)sc2c1 | inconclusive: 14.1 µM [inhibitor, partial curve] | –
CCOC(=O)C(Cc1ccccc1)c1ccnc2nc(N)nn12 (stereo unspecified) | inconclusive: 31.6 µM [inhibitor, partial curve] | –
O=C(O)c1ccc(N/N=C/c2ccc(-c3ccccc3)cc2)cc1 | inconclusive: 22.4 µM [inhibitor, partial curve] | –
O=[N+]([O-])c1cc([N+](=O)[O-])c2cccnc2c1Oc1ccccc1O | active: 22.4 µM | –
O=C(Nc1ccc(Cc2ccncc2)cc1)C1CCC(N2C(=O)C3C4C=CC(C5CC45)C3C2=O)CC1 (stereo unspecified) | – | inactive: 2.87%
COC(=O)c1cc(Cl)c(NS(=O)(=O)c2ccccc2)cc1OC | inconclusive: 25.1 µM [inhibitor, single point] | –
COCCCNC(=O)c1ccc2nc3ccccc3c(=O)n2c1 | inconclusive: 28.2 µM [inhibitor, partial curve] | –
Cn1c(CCNC(=O)c2cccs2)nnc1SCC(=O)N1CCN(c2ccccc2)CC1 | – | inactive: 2.95%
COc1ccc(CCNC(=O)Cn2nnc(-c3ccc(N(C)C)cc3)n2)cc1OC | inconclusive: 35.5 µM [inhibitor, single point] | –
COc1ccc(S(=O)(=O)n2nc(-c3ccc(Cl)cc3)cc2N)cc1 | – | inactive: 0.556%
O=C(Nc1ccc2nn(-c3ccccc3)nc2c1)c1ccc(Br)o1 | inconclusive: 31.6 µM [inhibitor, single point] | –
COc1ccc(/C=C/c2c([N+](=O)[O-])c(=O)n(C)c(=O)n2C)cc1OC | – | inactive: -16.5%

SMILES | Potency | activity change, negative = inhibition
O=C(Cc1ccc2c(c1)OCCO2)N1CCN(S(=O)(=O)c2cccc(Cl)c2Cl)CC1 | inconclusive: 39.8 µM [inhibitor, single point] | –
CC(/C=N/NC(=O)c1cc(-c2cccnc2)nc2c1c(C)nn2-c1ccccc1)=C\c1ccccc1 | inconclusive: 20 µM [inhibitor, partial curve] | –
CCCCc1cc2c(c(NC(C)=O)n1)c(=O)oc1ccccc12 | inconclusive: 28.2 µM [inhibitor, partial curve] | –
O=C(/C=C/c1ccco1)Nc1nc(-c2ccc(F)c(F)c2)cs1 | inconclusive: 39.8 µM [inhibitor, single point] | –
COc1ccc2cc3cc(C(=O)N4CCN(Cc5ccc6c(c5)OCO6)CC4)oc3nc2c1 | inconclusive: 28.2 µM [inhibitor, partial curve] | –
C=CCn1c(N/N=C/c2ccc(O)cc2)nc2ccccc2c1=O | – | inactive: -7.47%
Cc1ccc(C)n1-c1ccc(C#N)cn1 | inconclusive: 25.1 µM [inhibitor, partial curve] | –
CCCCN(CCCC)c1ccc(C(=O)c2ccccc2C(=O)O)c(O)c1 | inconclusive: 39.8 µM [inhibitor, single point] | –
CC1CC(C)CN(C(=O)c2ccc3c(c2)N(Cc2ccccc2)CCS3)C1 (stereo unspecified) | inconclusive: 28.2 µM [inhibitor, partial curve] | –
Cc1ccc(Nc2nnc(SC3CCOC3=O)s2)cc1 (stereo unspecified) | – | inactive: 9.76%
Cc1ccccc1N1C(=O)c2cc(S(N)(=O)=O)c(Cl)cc2NC1C (stereo unspecified) | inconclusive: 31.6 µM [inhibitor, partial curve] | –
COC1C=CO[C@@]2(C)Oc3c(C)c(O)c4c(O)c(c(C=NN5CCN(C)CC5)c(O)c4c3C2=O)NC(=O)/C(C)=C\C=CC(C)C(O)[C@@H](C)C(O)C(C)[C@H](OC(C)=O)C1C (stereo partly specified) | active: 12.6 µM | –
Cn1c(SCc2nc3ccccc3c(=O)[nH]2)nc2ccccc21 | inconclusive: 15.8 µM [inhibitor, partial curve] | –
COc1ccccc1OCCn1c(=O)n(C)c2ccccc21 | – | inactive: -4.17%
O=C1C(=O)N(CCN2CCOCC2)C(c2ccccn2)/C1=C(/O)c1ccc(F)cc1 (stereo unspecified) | inconclusive: 28.2 µM [inhibitor, single point] | –
Cc1nc(CCN2C(=O)c3ccccc3C2=O)n[nH]1 | – | inactive: 8.19%
CC[C@H](NC(C)C)[C@H](O)c1ccc(O)c2[nH]c(=O)ccc12 | inconclusive: 39.8 µM [inhibitor, single point] | –
CC(C)Cn1cnc2c(c(-c3ccccc3)c(-c3ccccc3)n2Cc2ccco2)c1=N | – | inactive: 8.02%
Cc1c(OCc2ccc(C(=O)O)cc2)ccc2c(-c3ccccc3)cc(=O)oc12 | inconclusive: 31.6 µM [inhibitor, single point] | –
O=C(N/N=C/c1c[nH]c2ccc(Br)cc12)c1ccn(Cc2ccc(Cl)cc2Cl)n1 | inconclusive: 35.5 µM [inhibitor, single point] | –
Cc1ccc(CNC(=O)CSc2nc3c(sc4ccccc43)c(=O)n2CCCN2CCCC2)cc1 | inconclusive: 31.6 µM [inhibitor, partial curve] | –
CNC(=O)COC(=O)c1cc2c(C)nn(-c3ccc(F)cc3)c2s1 | inconclusive: 14.1 µM [inhibitor, single point] | –

SMILES | Potency | activity change, negative = inhibition
CCOC(=O)c1cc2c(ccn2C)n1CC(=O)N1C(C)CCCC1C (stereo unspecified) | inconclusive: 20 µM [inhibitor, partial curve] | –
Cc1oc(-c2cccs2)nc1CS(=O)CC(=O)NC1CCCCCC1 (stereo unspecified) | – | inactive: -2.54%
CC(C)Oc1ccccc1C1Nc2ccccc2C(=O)N1c1ccc2c(c1)OCCO2 (stereo unspecified) | inconclusive: 28.2 µM [inhibitor, partial curve] | –
CCN(c1ccccc1)S(=O)(=O)c1ccc(Oc2ccc(-n3ccnc3)cc2)nc1 | inconclusive: 35.5 µM [inhibitor, partial curve] | –
COc1ccc(CCNc2oc(-c3cccc4ccccc34)nc2P(=O)(OC)OC)cc1OC | inconclusive: 28.2 µM [inhibitor, partial curve] | –
COc1ccccc1CC(=O)NCc1ccc2c(c1)OCO2 | – | inactive: -28.3%
COC(=O)c1ccc(C(=O)OC)c(NC(=S)N2CCN(C)CC2)c1 | inconclusive: 28.2 µM [inhibitor, partial curve] | –
Cc1nn(C)cc1CNCc1c(C(=O)N2CCCCC2)nc2c(C)cccn12 | – | inactive: 0.841%
COc1ccccc1/C=C/C(=O)OCC(=O)NNC(=O)c1ccccc1 | inconclusive: 31.6 µM [inhibitor, partial curve] | –
CCOC(=O)C1(O)CSc2nc3sc(C(=O)O)c(C)c3c(=O)n21 (stereo unspecified) | inconclusive: 35.5 µM [inhibitor, partial curve] | –
CCCn1c(=O)c2[nH]c(-c3ccc(S(=O)(=O)O)cc3)nc2n(CCC)c1=O | inconclusive: 7.08 µM [inhibitor, partial curve] | –
CCN1C(c2ccccc2)=C(c2ccccc2)S/C1=C/C=C1\SC(=S)N(C)C1=O | – | inactive: 1.37%
O=[N+]([O-])c1cccnc1N1CCC(c2cc(-c3cccc(C(F)(F)F)c3)n[nH]2)CC1 | – | inactive: -1.13%
Cc1oc(-c2cc(F)cc(F)c2)nc1CN1CCSCC1 | inconclusive: 31.6 µM [inhibitor, single point] | –
O=C1c2ccccc2C(=O)N1CCCCN(C(=O)c1cccc([N+](=O)[O-])c1)c1ccc(Cl)cc1 | – | inactive: -3.01%
Cc1ccc(C2Nc3ccccc3C(=O)N2CCN2CCNC2=O)cc1 (stereo unspecified) | inconclusive: 31.6 µM [inhibitor, partial curve] | –
O=C(CSc1nnnn1Cc1ccccc1)NCC(=O)c1ccccc1 | – | inactive: 5.9%
COc1ccc(Oc2coc3c(CN(C)C)c(O)ccc3c2=O)cc1 | inconclusive: 35.5 µM [inhibitor, partial curve] | –
Clc1ccc(SCc2cn3ccccc3n2)cc1 | – | inactive: -2.7%
CC(C)CC(=O)N1CCC(N2CCN(c3ccccc3)CC2)CC1 | inconclusive: 28.2 µM [inhibitor, single point] | –
O=c1[nH]c(NCCO)nc2c1C1(CCCC1)Cc1ccccc1-2 | inconclusive: 20 µM [inhibitor, partial curve] | –
COc1ccc(C(=O)c2c(N)sc3c2CCN(C(=O)OC(C)(C)C)C3)cc1 | inconclusive: 31.6 µM [inhibitor, single point] | –
